# In the supplement of paper PMC8728848:
# The other results are listed elsewhere or left out.
# Tests used:
# Assay in all cases: glycan array binding signal (z-score within array); higher = stronger binding
# Settings in all cases: glycan notation: IUPAC condensed, linker removed
# [1] = target: Fuc(a1-2)Gal(b1-4)GlcNAc(b1-3)[Fuc(a1-3)[Gal(b1-4)]GlcNAc(b1-6)]Gal(b1-4)Glc
# Summary of the method: (§1)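 Glycan array binding is given as a within-array Z-score, which can be read as non-binding when negative. The arrays, 3228 of them, came from the Consortium for Functional Glycomics database and were retained only where the protein sequence was available. Z-scores were averaged across arrays of the same protein sequence at different concentrations or buffers and across linkers.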
# [2] = target: Fuc(a1-2)Gal(b1-4)GlcNAc(b1-6)GalNAc
# Summary of the method: as §1
# [3] = target: Fuc(a1-2)Gal(b1-4)GlcNAc6S
# Summary of the method: as §1
# [4] = target: Fuc(a1-2)Gal(b1-4)[Fuc(a1-3)]GlcNAc
# Summary of the method: as §1
# [5] = target: Fuc(a1-2)Gal(b1-4)[Fuc(a1-3)]GlcNAc(b1-2)Man(a1-3)[Fuc(a1-2)Gal(b1-4)[Fuc(a1-3)]GlcNAc(b1-2)Man(a1-6)]Man(b1-4)GlcNAc(b1-4)GlcNAc
# Summary of the method: as §1
# [6] = target: Fuc(a1-2)Gal(b1-4)[Fuc(a1-3)]GlcNAc(b1-2)Man(a1-3)[Fuc(a1-2)Gal(b1-4)[Fuc(a1-3)]GlcNAc(b1-2)Man(a1-6)]Man(b1-4)GlcNAc(b1-4)[Fuc(a1-6)]GlcNAc
# Summary of the method: as §1
# [7] = target: Fuc(a1-2)Gal(b1-4)[Fuc(a1-3)]GlcNAc(b1-2)[Fuc(a1-2)Gal(b1-4)[Fuc(a1-3)]GlcNAc(b1-4)]Man(a1-3)[Fuc(a1-2)Gal(b1-4)[Fuc(a1-3)]GlcNAc(b1-2)Man(a1-6)]Man(b1-4)GlcNAc(b1-4)GlcNAc
# Summary of the method: as §1
# [8] = target: Fuc(a1-2)Gal(b1-4)[Fuc(a1-3)]GlcNAc(b1-3)Gal(b1-4)[Fuc(a1-3)]GlcNAc
# Summary of the method: as §1
# [9] = target: Fuc(a1-2)Gal(b1-4)[Fuc(a1-3)]GlcNAc(b1-3)Gal(b1-4)[Fuc(a1-3)]GlcNAc(b1-3)Gal(b1-4)[Fuc(a1-3)]GlcNAc
# Summary of the method: as §1
# [10] = target: Fuc(a1-2)Gal(b1-4)[Fuc(a1-3)]GlcNAc(b1-3)GalNAc
# Summary of the method: as §1
# [11] = target: Fuc(a1-2)Gal(b1-4)[Fuc(a1-3)]GlcNAc(b1-3)[Neu5Ac(a2-6)Gal(b1-4)GlcNAc(b1-6)]Gal(b1-4)Glc
# Summary of the method: as §1
# [12] = target: Fuc(a1-2)Gal3S(b1-4)GlcNAc
# Summary of the method: as §1
# [13] = target: Fuc(a1-2)Gal6S(b1-3)GlcNAc
# Summary of the method: as §1
# [14] = target: Fuc(a1-2)Gal6S(b1-3)GlcNAc6S
# Summary of the method: as §1
# Fuc(a1-2)Gal6S(b1-4)Glc = target: Fuc(a1-2)Gal6S(b1-4)Glc
# Summary of the method: as §1
# [15] = target: Fuc(a1-2)Gal6S(b1-4)Glc6S
# Summary of the method: as §1
# [16] = target: Fuc(a1-2)Gal6S(b1-4)GlcNAc
# Summary of the method: as §1
# Fuc(a1-2)[Gal(a1-3)]Gal = target: Fuc(a1-2)[Gal(a1-3)]Gal
# Summary of the method: as §1
# [17] = target: Fuc(a1-2)[Gal(a1-3)]Gal(b1-3)GalNAc
# Summary of the method: as §1
# [18] = target: Fuc(a1-2)[Gal(a1-3)]Gal(b1-3)GalNAc(b1-3)Gal(a1-4)Gal(b1-4)Glc
# Summary of the method: as §1
# [19] = target: Fuc(a1-2)[Gal(a1-3)]Gal(b1-3)GlcNAc
# Summary of the method: as §1
# [20] = target: Fuc(a1-2)[Gal(a1-3)]Gal(b1-3)GlcNAc(b1-2)Man(a1-3)[Fuc(a1-2)[Gal(a1-3)]Gal(b1-3)GlcNAc(b1-2)Man(a1-6)]Man(b1-4)GlcNAc(b1-4)GlcNAc
# Summary of the method: as §1
# [21] = target: Fuc(a1-2)[Gal(a1-3)]Gal(b1-3)GlcNAc(b1-2)Man(a1-3)[Fuc(a1-2)[Gal(a1-3)]Gal(b1-3)GlcNAc(b1-2)Man(a1-6)]Man(b1-4)GlcNAc(b1-4)[Fuc(a1-6)]GlcNAc
# Summary of the method: as §1
# [22] = target: Fuc(a1-2)[Gal(a1-3)]Gal(b1-3)GlcNAc(b1-3)GalNAc
# Summary of the method: as §1
# [23] = target: Fuc(a1-2)[Gal(a1-3)]Gal(b1-3)GlcNAc(b1-6)GalNAc
# Summary of the method: as §1
# [24] = target: Fuc(a1-2)[Gal(a1-3)]Gal(b1-4)Glc
# Summary of the method: as §1
# [25] = target: Fuc(a1-2)[Gal(a1-3)]Gal(b1-4)GlcNAc
# Summary of the method: as §1
# [26] = target: Fuc(a1-2)[Gal(a1-3)]Gal(b1-4)GlcNAc(b1-2)Man
# Summary of the method: as §1
# [27] = target: Fuc(a1-2)[Gal(a1-3)]Gal(b1-4)GlcNAc(b1-2)Man(a1-3)[Fuc(a1-2)[Gal(a1-3)]Gal(b1-4)GlcNAc(b1-2)Man(a1-6)]Man(b1-4)GlcNAc(b1-4)GlcNAc
# Summary of the method: as §1
# [28] = target: Fuc(a1-2)[Gal(a1-3)]Gal(b1-4)GlcNAc(b1-2)Man(a1-3)[Fuc(a1-2)[Gal(a1-3)]Gal(b1-4)GlcNAc(b1-2)Man(a1-6)]Man(b1-4)GlcNAc(b1-4)[Fuc(a1-6)]GlcNAc
# Summary of the method: as §1
# [29] = target: Fuc(a1-2)[Gal(a1-3)]Gal(b1-4)GlcNAc(b1-3)GalNAc
# Summary of the method: as §1
# [30] = target: Fuc(a1-2)[Gal(a1-3)]Gal(b1-4)GlcNAc(b1-3)[Fuc(a1-2)[Gal(a1-3)]Gal(b1-4)GlcNAc(b1-6)]GalNAc
# Summary of the method: as §1
# [31] = target: Fuc(a1-2)[Gal(a1-3)]Gal(b1-4)GlcNAc(b1-6)GalNAc
# Summary of the method: as §1
# [32] = target: Fuc(a1-2)[Gal(a1-3)]Gal(b1-4)[Fuc(a1-3)]Glc
# Summary of the method: as §1
# [33] = target: Fuc(a1-2)[Gal(a1-3)]Gal(b1-4)[Fuc(a1-3)]GlcNAc
# Summary of the method: as §1
# [34] = target: Fuc(a1-2)[Gal(a1-3)]Gal(b1-4)[Fuc(a1-3)]GlcNAc(b1-3)GalNAc
# Summary of the method: as §1
# [35] = target: Fuc(a1-2)[Gal(a1-4)]Gal(b1-4)GlcNAc
# Summary of the method: as §1
# [36] = target: Fuc(a1-2)[GalNAc(a1-3)]Gal
# Summary of the method: as §1
binder,measurement,setting,value
"HPA (Helix pomatia), Q575S3 (protein) MWAHLTGLLLICALSLSAAQRAQTGEIDCGSDSSWPKDPSDNPNRDNTREIVKHVTFSPQFCREPKVILSVTTLDAEHTKNLRYEARLKSVSPSGLSASCYSWHDGTIYRMKLSWLAVED",glycan array binding signal (z-score),[1],-0.256
same,glycan array binding signal (z-score),[2],-0.251
same,glycan array binding signal (z-score),[3],-0.26
same,glycan array binding signal (z-score),[4],-0.264
same,glycan array binding signal (z-score),[5],-0.221
same,glycan array binding signal (z-score),[6],-0.245
same,glycan array binding signal (z-score),[7],-0.224
same,glycan array binding signal (z-score),[8],-0.27
same,glycan array binding signal (z-score),[9],-0.262
same,glycan array binding signal (z-score),[10],-0.228
same,glycan array binding signal (z-score),[11],-0.254
same,glycan array binding signal (z-score),[12],-0.257
same,glycan array binding signal (z-score),[13],-0.257
same,glycan array binding signal (z-score),[14],-0.23
same,glycan array binding signal (z-score),Fuc(a1-2)Gal6S(b1-4)Glc,-0.253
same,glycan array binding signal (z-score),[15],-0.255
same,glycan array binding signal (z-score),[16],-0.266
same,glycan array binding signal (z-score),Fuc(a1-2)[Gal(a1-3)]Gal,-0.264
same,glycan array binding signal (z-score),[17],-0.25
same,glycan array binding signal (z-score),[18],-0.259
same,glycan array binding signal (z-score),[19],-0.24
same,glycan array binding signal (z-score),[20],-0.26
same,glycan array binding signal (z-score),[21],-0.24
same,glycan array binding signal (z-score),[22],-0.247
same,glycan array binding signal (z-score),[23],-0.242
same,glycan array binding signal (z-score),[24],-0.255
same,glycan array binding signal (z-score),[25],-0.268
same,glycan array binding signal (z-score),[26],-0.247
same,glycan array binding signal (z-score),[27],-0.269
same,glycan array binding signal (z-score),[28],-0.244
same,glycan array binding signal (z-score),[29],-0.243
same,glycan array binding signal (z-score),[30],-0.247
same,glycan array binding signal (z-score),[31],-0.246
same,glycan array binding signal (z-score),[32],-0.247
same,glycan array binding signal (z-score),[33],-0.251
same,glycan array binding signal (z-score),[34],-0.244
same,glycan array binding signal (z-score),[35],-0.081
same,glycan array binding signal (z-score),[36],3.92
